From paper PMC4336329 (PLoS ONE, 2015)
Out of some 310,000 compounds screened, about 2,200 (0.71%) showed an effect of 50% or more. Effects have a minus sign here. The list shows a part of the results.

target: human ether-à-go-go-related gene (hERG) potassium channel (human, UniProt Q12809); assay: primary screen, population patch clamp on CHO cells stably expressing hERG
Sequence (Q12809 whole entry, looked up): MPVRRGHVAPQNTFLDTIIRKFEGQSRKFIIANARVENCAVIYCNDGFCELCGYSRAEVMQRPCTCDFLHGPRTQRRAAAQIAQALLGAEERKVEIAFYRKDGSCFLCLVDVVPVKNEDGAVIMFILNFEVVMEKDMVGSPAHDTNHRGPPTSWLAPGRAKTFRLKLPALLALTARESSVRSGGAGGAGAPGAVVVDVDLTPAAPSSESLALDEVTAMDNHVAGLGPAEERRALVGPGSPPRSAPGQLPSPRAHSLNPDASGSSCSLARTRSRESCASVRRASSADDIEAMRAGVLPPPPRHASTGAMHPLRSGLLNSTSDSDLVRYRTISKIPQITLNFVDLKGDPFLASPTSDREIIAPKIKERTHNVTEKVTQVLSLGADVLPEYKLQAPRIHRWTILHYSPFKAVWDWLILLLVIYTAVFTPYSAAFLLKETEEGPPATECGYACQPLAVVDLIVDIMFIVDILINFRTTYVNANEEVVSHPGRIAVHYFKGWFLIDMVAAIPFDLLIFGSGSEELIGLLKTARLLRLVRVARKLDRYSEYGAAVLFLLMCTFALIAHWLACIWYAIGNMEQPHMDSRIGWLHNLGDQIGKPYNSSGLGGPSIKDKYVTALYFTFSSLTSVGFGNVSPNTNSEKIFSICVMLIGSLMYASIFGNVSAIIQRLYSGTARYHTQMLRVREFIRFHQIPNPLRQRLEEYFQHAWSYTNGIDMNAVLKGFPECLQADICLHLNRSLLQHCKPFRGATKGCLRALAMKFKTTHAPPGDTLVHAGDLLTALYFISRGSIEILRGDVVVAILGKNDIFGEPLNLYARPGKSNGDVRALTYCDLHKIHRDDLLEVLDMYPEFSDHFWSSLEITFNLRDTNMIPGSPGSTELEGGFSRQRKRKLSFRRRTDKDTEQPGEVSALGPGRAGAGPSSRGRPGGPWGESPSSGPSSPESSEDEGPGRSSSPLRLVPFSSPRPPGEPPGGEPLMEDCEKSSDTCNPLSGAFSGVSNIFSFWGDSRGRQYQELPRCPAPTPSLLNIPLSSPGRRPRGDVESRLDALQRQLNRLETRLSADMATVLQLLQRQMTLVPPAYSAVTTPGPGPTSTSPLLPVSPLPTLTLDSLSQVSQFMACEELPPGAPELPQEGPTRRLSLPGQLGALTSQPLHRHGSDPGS

| SMILES | hERG current change (%, negative = inhibition) at 1uM |
| --- | --- |
| C=CCNC(=S)NNC(=O)c1cccn(Cc2ccc(Cl)cc2Cl)c1=O | 7.44% |
| CC1(C)CC(NC(=S)Nc2ccc(S(N)(=O)=O)cc2)CC(C)(C)N1 | 15.5% |
| CCN(CC)CCNC(=O)c1c(O)c2cc(OC)c(OC)cc2[nH]c1=O.Cl | 9.48% |
| CCOC(=O)C1=C(C)N(c2ccc(Cl)cc2)C(=O)NC1c1cccc([N+](=O)[O-])c1 (stereo not drawn) | -7.59% |
| COc1ccccc1NC(=O)COC(=O)C1CC2C=CC1C2 (stereo not drawn) | 7.92% |
| COc1ccc(S(=O)(=O)N2CCCCC2)cc1NS(=O)(=O)c1ccccc1F | 4.42% |
| COc1ccc(CN(CC(=O)NC2CCCC2)C(=O)c2csnn2)cc1 | 3.85% |
| CC(C)[C@H](NC(=O)c1ccccc1Cl)C(=O)OCc1cc(=O)n2cc(Br)ccc2n1 | -6.52% |
| CCOc1nc(NC(=O)NS(=O)(=O)Oc2ccccc2Cl)nc(-c2ccccc2)n1 | 3.9% |
| CCc1nonc1NC(=O)COc1cc(C)c(Cl)c(C)c1 | 11.4% |
| CCCCOC(=O)C1CCCC(C)N1.Cl (stereo not drawn) | 16.6% |
| COc1ccc([N+](=O)[O-])cc1NCC(=O)c1ccc(C)cc1 | 16.4% |
| Cn1c(=O)n(-c2cccc(Cl)c2)c(=O)n1C | 2.58% |
| Cc1ccc(C(C)C)c(OCC(=O)NCC(c2cccs2)N2CCOCC2)c1 (stereo not drawn) | -15.3% |
| Cc1c(NC(=O)COC(=O)/C=C/c2ccc(Cl)cc2)c(=O)n(-c2ccccc2)n1C | 9.08% |
| O=C(Nc1cccc(NC(=O)c2ccc(F)cc2)c1)c1ccc(F)cc1 | 10.7% |
| O=C(/C=C/c1ccc(O)cc1)c1c(O)cc(O)cc1O | 13.8% |
| C/C(=N\NC(=O)C(=O)Nc1ccc(C)cc1)c1ccncc1 | 1.8% |
| COc1ccc(CN2CCN(Cc3ccc(CO)o3)CC2CCO)cc1C (stereo not drawn) | 5% |
| CCOCCCNC(=O)C(NC(=O)c1ccccn1)c1ccc(C)cc1 (stereo not drawn) | -0.187% |
| O=C(COC(=O)c1ccc(=O)n(Cc2ccccc2)n1)Nc1ccc2c(c1)OCCO2 | 8.18% |
| Cc1ccc(C=C2C(Cl)=C(Cl)C(Cl)=C2Cl)cc1 | 9.82% |
| COC(=O)C1=C(c2cccc(OCc3ccccc3)c2)C[C@@H]2CC[C@H]1N2C(=O)NCc1cccc(C(F)(F)F)c1 | 19.3% |

| SMILES | hERG current change (%, negative = inhibition) at 1uM |
| --- | --- |
| NC(=O)c1cc([N+](=O)[O-])ccc1NCCc1ccccc1 | 14.5% |
| Cc1cccc(COCC(Cc2ccccc2)N2CCN(C(=O)c3cccc(C)c3)CCC2=O)c1 (stereo not drawn) | 6.78% |
| Cc1nc2ccccc2n1Cc1ccc(Br)cc1 | 8.25% |
| Cc1ccc(NC(=O)COC(=O)CC2CCCC2)cc1Cl | 9.82% |
| CSc1ncc(Cl)c(C(=O)Nc2ccccc2Cl)n1 | 14.8% |
| CN(C)c1ccc(C(=O)c2ccc(N(C)C)c3ccccc23)cc1 | 11.3% |
| CCCSc1nc(-c2ccccc2)cc(C(F)(F)F)c1C#N | -5.06% |
| CC(C)CNc1nc(N)c([N+](=O)[O-])c(NC2CCCCC2)n1 | 1.91% |
| CC(CNS(=O)(=O)c1ccc(Cl)cc1)n1cncn1 (stereo not drawn) | 14.2% |
| COc1cccc(C2CC(C(F)(F)F)n3ncc(C(=O)NC(C)(C)C)c3N2)c1 (stereo not drawn) | 14.1% |
| CC1CN(c2ccc(NS(=O)(=O)c3ccccc3)cc2C(=O)O)CC(C)O1 (stereo not drawn) | 11% |
| CCc1ccccc1Nc1nc(N)nc(CSc2nnnn2C)n1 | 4.04% |
| CC(C)(C)NC(=O)C(c1ccncc1)N(Cc1cccs1)C(=O)Cn1nnc(-c2cccs2)n1 (stereo not drawn) | 9.26% |
| NS(=O)(=O)c1ccc(CCNC(=O)c2cc(=O)[nH]c3ccccc23)cc1 | 7.05% |
| NNC(=O)c1[nH]c(-c2ccccc2)cc1-c1ccccc1 | 21.3% |
| O=c1oc(-c2cccs2)nc2sc3c(c12)CCCC3 | 6.47% |
| CC(=O)N1c2c(cc(Br)cc2S(=O)(=O)NCc2ccc3c(c2)OCO3)CC1C (stereo not drawn) | -16% |
| CCC(=O)c1ccc(OCC(O)CN2CCOCC2)cc1 (stereo not drawn) | 17.8% |
| COC(=O)[C@H](C)NC(=O)NCc1ccc(F)cc1 | 16.1% |
| O=C(/C=C/c1cccc([N+](=O)[O-])c1)Nc1ccccn1 | 7.42% |
| CCc1nc2ccccc2c(C(=O)NCc2ccc(OC)cc2)c1C | -7.59% |
| CC1(C)C/C(=N\NC(=S)Nc2ccccc2F)c2cc(O)ccc2O1 | 7.57% |
| CCOc1ccc(CCNC(=O)COC(=O)c2oc3ccccc3c2COC)cc1OCC | 7.14% |

| SMILES | hERG current change (%, negative = inhibition) at 1uM |
| --- | --- |
| Cc1ccc(C)c(NC(=S)/C(=C(\[O-])c2ccc(Cl)s2)[n+]2ccccc2)c1 | -0.785% |
| COc1cc(C(=O)COC(=O)c2cc([N+](=O)[O-])ccc2N2CCOCC2)ccc1OC(F)F | -16.7% |
| Cc1cc(C(=O)c2cnc(/N=C/N(C)C)s2)c(F)cc1Cl | 2.29% |
| CCN(Cc1ccccc1)C(=O)c1cc2c(OC)c(OC)c(OC)cc2[nH]1 | 6.4% |
| COc1cc(C2N=C(c3ccccc3)NO2)cc(Br)c1O (stereo not drawn) | 2.52% |
| Cc1ccc(CNc2nc(Cl)c(C#N)s2)cc1 | 6.64% |
| COc1ccccc1CC(=O)N1CCN(CCc2ccccc2)CC1 | 0.818% |
| O=c1n(-c2ccccc2)c(=O)n(Cc2ccccn2)n1Cc1ccccn1 | 7.69% |
| COc1ccc(C(C)=O)cc1CSc1nnc(Nc2ccccc2)s1 | 16.8% |
| Cc1cc(Nc2cccc(C)c2C)n2ncnc2n1 | 9.74% |
| Cc1nc(C(=O)N(C)C)nn1-c1cc(Cl)cc(Cl)c1 | 11.5% |
| COc1ccc(C(=O)N/C(=C\c2cn(C)c3ccccc23)C(=O)N2CCN(C)CC2)cc1 | 10.2% |
| COCCN=c1scc(-c2cc(OC)c(OC)c(OC)c2)n1/N=C/c1c(C)[nH]c2ccccc12 | 6.44% |
| O=C(OCc1nc2ccc(Cl)cc2n1CCO)c1ccccc1 | 8.43% |
| Br.CCOC(=O)/C(C)=N/Nc1nc(-c2ccc(NC(C)=O)cc2)cs1 | 10% |
| O=C(Cc1cccs1)Nc1nc(-c2ccccc2)cs1 | -1.23% |
| CC(C)(C)NC(=O)NC(=O)CN1CCN(S(=O)(=O)c2ccc3c(c2)CCCC3)CC1 | 12.6% |
| CCOc1nc(-c2ccccc2)ncc1Oc1ccccc1 | 18.6% |
| O=C(Nc1nnc(C(F)(F)F)s1)c1c(F)cccc1F | 13.6% |
| O=C1C2C3C=CC(CO)(O3)C2C(=O)N1c1ccccc1-c1ccccc1 (stereo not drawn) | 16.9% |
| O=C(O)c1ccccc1CSc1ncn[nH]1 | 3.87% |
| O=C1OCCC1Sc1nnc(-c2cccc(Br)c2)o1 (stereo not drawn) | 7.56% |
| COCCSc1nnc(NC(=O)C2CCCCC2)s1 | 12.9% |

| SMILES | hERG current change (%, negative = inhibition) at 1uM |
| --- | --- |
| Cc1ccc(S(=O)(=O)Oc2ccc(/C=C(/NC(=O)c3ccccc3)C(=O)NCCCC(=O)O)cc2)cc1 | 17.3% |
| CCOC(=O)CC1(NC(=O)C2CCC(=O)N(Cc3ccccc3F)C2)CCCCC1 (stereo not drawn) | 11.5% |
| COc1ccc(C2=NOC(Cn3nc(C(=O)NCc4cccc(C(F)(F)F)c4)cc3-c3ccccc3)C2)cc1 (stereo not drawn) | 13.6% |
| CCCn1ccc(O)c(Cc2ccc(Cl)cc2)c1=O | 15.7% |
| Cc1ccc(CN2CCN(CC(=O)N/N=C/c3ccccc3F)CC2)cc1 | -34.9% |
| C[C@@H]1CCCCCCCCCCC1=O | 13.3% |
| CC(=O)Nc1ccc(NC(=O)COC(=O)c2ccco2)cc1 | 10.1% |
| COc1ccc(-n2c(O)c(C=Nc3ccccc3)c3ccccc3c2=O)cc1 | 16.1% |
| C/C(=C\C(=O)c1ccccc1)Nc1ccc(Br)c(Cl)c1 | 13.7% |
| O=C(Cn1cncn1)N/N=C/c1cccc2ccccc12 | 0.867% |
| Cc1noc(/C=C/N(C)C)c1S(=O)(=O)N(C)CC(=O)N1CCc2ccccc21 | 2.3% |
| CCOc1ccc(/C=N/NC(=O)C(C)Sc2ccccn2)cc1OCC (stereo not drawn) | 12% |
| COc1ccc(N2CCN(C3CCCN(Cc4cccc(C)c4)C3)CC2)cc1 (stereo not drawn) | 9.53% |
| Cc1cc(/C=C\c2ccccc2)nc2ccccc12 | 5.43% |
| CCOc1ccc(N2C(=O)CSC2=NC#N)cc1 | 6.59% |
| Nc1ccc2nc(-c3ccccc3)c(-c3ccccc3)nc2c1 | 13.1% |
| CSCCC(=O)NC1CCCN(CCc2ccccc2)C1 (stereo not drawn) | 3.88% |
| O=C(O)c1cc(-c2ccc(/C=c3\sc4nc5ccc(Br)cc5n4c3=O)o2)ccc1Cl | 12.2% |
| Cc1cc(Br)c(NC(=O)Cn2c([N+](=O)[O-])cnc2C)cc1C | 8.28% |
| C/C(=N\NC(=O)c1cccnc1)c1cccc([N+](=O)[O-])c1 | 6.14% |
| O=C(COC(=O)/C=C/c1cccc(Cl)c1)Nc1ccc2[nH]c(=O)[nH]c2c1 | 3.6% |
